The supplement of paper PMC11417369
± gives the standard deviation of the averaged measurements. The list shows a part of the results.

test system: PfAP2-LT AP2 domain (GST-tagged); assay: gcPBM binding intensity (ln(normalized median fluorescence intensity)); higher = stronger DNA binding
Summary of the method: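 The highest Masliner-normalised natural-log median intensity across replicate spots of either probe orientation is reported as binding intensity. GST-tagged P. falciparum DNA-binding domains expressed in E. coli were applied for 1 h to an Agilent 4 × 180k array of primer-extended double-stranded 36-bp intergenic genomic probes plus negative controls, and bound protein was detected with Alexa488 anti-GST antibody and scanned at 488 nm.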

| Sequence | gcPBM binding intensity (ln) |
| --- | --- |
| TAATAAATAAAATATGCACACAAATATAGGAAACAA [CACACA_site8820] | 9.24 ± 0.34 |
| ATATATATAATATAATGTACGTATAATAATATGAGA [XGTACX_site2282] | 8.98 ± 0.42 |
| CGTTATATATATAAAAGTACAAAAATTAAACATTCC [XGTACX_site4568] | 8.82 ± 0.55 |
| ATATGTAAATAAATATGTACTCATTTATTATTTTAT [XGTACX_site8748] | 8.68 ± 0.49 |
| ATATATACAAGTATTTTTTTTTCAAACATTATTTTT [CACACA_negctrl_site1808] | 8.49 ± 0.65 |
| ATATGTATATTTTTTTGTACGTATTTATGTGTGTGT [XGTACX_site2093] | 9.81 ± 0.57 |
| ATATTTTATGTGTTGGTGCACATCTTTATTTAAACT [GTGCAC_site9736] | 9.14 ± 0.48 |
| TATTTGTAATATTATACACACATTATATATTACAAA [CACACA_site5804] | 8.79 ± 0.36 |
| ATTTAAATAACGTATGTATATACATATATATATATA [TGCATGCA_negctrl_site207] | 9.41 ± 0.27 |
| CGTAGCCACACTAACACACACAAATATACACAATCA [CACACA_site7379] | 9.64 ± 0.4 |
| TATTTTGTATATAAATGTACAAGTATATATTTTTTC [XGTACX_site7855] | 8.56 ± 0.45 |
| GATAAATGTATATATGCATGCACATATATTTATACA [TGCATGCA_site748] | 9.01 ± 0.27 |
| TGCATTATTTACAAGGTGCGTTACAAATGTGTAACA [GTGCAC_site9442] | 8.58 ± 0.35 |
| GCTTTAATCTGAAAGTGTACAGATAATATATTTATA [XGTACX_site2462] | 8.48 ± 0.42 |
| TATGAATATTTGTATACATGCATATAGAAATCATAT [TGCATGCA_site533] | 8.76 ± 0.38 |
| ATATATTATATATATATATATATATATTATTATTGT [TGCATGCA_negctrl_site286] | 9.18 ± 0.26 |
| TATATATATATTTTTGCATGTAATTTTTATGAGGAC [TGCATGCA_site884] | 8.82 ± 0.43 |
| TACTATAACGCACATACACACAAAAAAAAAAAAAAA [CACACA_site8073] | 9.04 ± 0.45 |
| ATATGGTGATATAGGTGTACATTTTGATGCTTATTT [XGTACX_site4283] | 9.12 ± 0.26 |
| TTATACATGAAATATTGTACACATATATATATATAT [XGTACX_site4378] | 9.22 ± 0.38 |
| ATATATAGAATGTGTACACACATATGTATTTATATA [CACACA_site810] | 9.24 ± 0.51 |
| ATTTTTTATGGACAAAAGACCTCTGATGTAAATATA [CACACA_negctrl_site1081] | 8.38 ± 0.4 |

| Sequence | gcPBM binding intensity (ln) |
| --- | --- |
| TTTTTTTTTTTCTTAGTGCGCGTGAAAAATATAAAA | 8.2 ± 0.35 |
| AATTAGATTATGCACACACACTTAAAAATAATAAAT [CACACA_site7015] | 9.49 ± 0.4 |
| TTACTCAAACAAACAAAAAAAAAAAAAAAAAAAAAA [TGCATGCA_negctrl_site457] | 8.28 ± 0.42 |
| TAAGTATAATATTGATGTACATATAATAACTTGTAT [XGTACX_site417] | 8.87 ± 0.48 |
| AAAAATAAAAAAATGACACACATATATATATATATA [CACACA_site2307] | 9.85 ± 0.11 |
| TATCTCTTATTTTATTGTACTTAACTATGCTATAAT [XGTACX_site4904] | 8.89 ± 0.58 |
| AAGAGAAATTATAACATGTGAAATGTATTATATATA [TGCATGCA_negctrl_site254] | 8.77 ± 0.47 |
| AAGGGAAAATTAAGGTTGCACTAAAAATATATCTTT [GTGCAC_site9608] | 8.52 ± 0.49 |
| ATGAACATACAATATACACACATATATATTTATATT [CACACA_site4609] | 9.16 ± 0.47 |
| TAGTTAACAAATAATGCACACAAATGGATAAAATTA [CACACA_site9240] | 9.11 ± 0.35 |
| ATTCAAATTGTAGAAACACACAAAAACTTAACATAT [CACACA_site2617] | 8.94 ± 0.44 |
| CATATGATATGTTATACACACACGTATATATGAATT [CACACA_site3446] | 9.26 ± 0.34 |
| CTTTGTGTTAAAAGTAGTACACCAAAAATATGACTT [XGTACX_site622] | 8.69 ± 0.42 |
| AGATACGATTATATGCGTTCAATATACCAAATAATT [TGCATGCA_negctrl_site501] | 8.81 ± 0.42 |
| TTTTTCATCATATGTTGTACAATGTGTAGATATATT [XGTACX_site3195] | 8.88 ± 0.38 |
| CACGCGCCCGGACACACACACACACCCATATATATA [CACACA_site5251] | 10.2 ± 0.57 |
| GAATAAATATTAAATGTGCACTTGAATAGATGTAAA | 8.86 ± 0.43 |
| AATATTTATGTGAAGACACACAACTGTTTATTATAT [CACACA_site3447] | 9.23 ± 0.15 |
| ATCCTACTATGTTATACACACAATTACTTTTTTCTC [CACACA_site3712] | 9.22 ± 0.45 |
| ATATGTAAAACTTCAAAAAAATATATTTTATGACGA [GTGCAC_negctrl_site324] | 8.72 ± 0.42 |
| TTACAACAGAATGGTATTTTTTTATTTTAAAGAAAA [TGCATGCA_negctrl_site230] | 8.13 ± 0.45 |
| AGATACTTTCCTCAAACACACAAAACTATACAACAA [CACACA_site1474] | 8.97 ± 0.38 |

| Sequence | gcPBM binding intensity (ln) |
| --- | --- |
| ATATTCTTCTAAAGGCGTACATCTACATTTATGAAA [XGTACX_site2145] | 8.59 ± 0.31 |
| ATTCAGTTCTATAATACACACATATATTGACATTAT [CACACA_site7309] | 9.09 ± 0.33 |
| GTTAGCTCGTTCGGAGCACACACATATATATATATA [CACACA_site8595] | 9.395 ± 0.0071 |
| AAAAATGAAAGGTGTACACATACAAACATAGAAAGA [CACACA_site5020] | 9.38 ± 0.52 |
| AAAATTTATATAGGCACACAAATAAATTAATACATA [CACACA_site1418] | 8.84 ± 0.53 |
| TTTTTTTTTTTTTGGTGTACTTTTTTTAGAACGCAA [XGTACX_site4207] | 8.31 ± 0.45 |
| TTTTTTCTTTCTTTCAAACACACATTAATTTTATTC [CACACA_site2733] | 8.71 ± 0.57 |
| ATTCTACACCCACATACACACATATATATATATATA [CACACA_site3426] | 10 ± 0.085 |
| TGTTCAAATTTATTCGATCTTTATATTTAATAAAAC [CACACA_negctrl_site781] | 8.32 ± 0.4 |
| ATATTAGAAATATGAATAGAAAGAATATATAAGTAT [CACACA_negctrl_site682] | 8.9 ± 0.55 |
| AGTTCTTCGTACCAAAAAACGGCACGCATATGTATA [TGCATGCA_negctrl_site469] | 8.7 ± 0.28 |
| TGTATTCATACATGCACACGTACATATTTAAATATA [CACACA_site3926] | 8.84 ± 0.3 |
| AATTATATTCTATTCACACATATTCCAACCTCTTTT [CACACA_site4670] | 8.9 ± 0.59 |
| TGAAAGAACCTGATTACACACATAAATTATATATAT [CACACA_site26] | 8.98 ± 0.47 |
| TTTGATGGTACACGTACACACCTTGCAAATATTTTT [CACACA_site4645] | 8.91 ± 0.36 |
| AAAAGATAATTATGCACACACACACCCAGACACAAC [CACACA_site5428] | 10.34 ± 0.021 |
| TGTATGTTGTAAAATTGTACATATATATTATATTTA [XGTACX_site4883] | 8.64 ± 0.4 |
| ATGAATATAATAAAGAAACACACGTATACATAATGA [CACACA_site1355] | 9.11 ± 0.45 |
| ATATATAAAATATACACACATACTGTTCATTTAAAG [CACACA_site4169] | 8.83 ± 0.38 |
| ATTTATATATCGCCCACACACATGTGATTATTTATA [CACACA_site6905] | 9.3 ± 0.35 |
| TATTTCAAAAAAAAAAAAAATAAAAAACAACAACAA [CACACA_negctrl_site893] | 8.55 ± 0.39 |
| AAAAAAAATTATATATGTACTTATTAATCCTTATAT [XGTACX_site1389] | 8.53 ± 0.52 |

| Sequence | gcPBM binding intensity (ln) |
| --- | --- |
| TACTACTATCTATATTGTACAAAAGGTGCCTACAAA [XGTACX_site4267] | 8.68 ± 0.35 |
| TACAAGTTTTTAAAGTGTACCAAAAAAAAAGAATAA [XGTACX_site979] | 8.71 ± 0.49 |
| TCTATTCAAAATAAAAGTACTAGCATGTGAATTGTT [XGTACX_site5530] | 8.63 ± 0.38 |
| TTCATTTATTTACTTACACACTTTATATATGTGGTT [CACACA_site4901] | 9.16 ± 0.49 |
| AGTATATACACGTGCGTGCACAGATATTCTTTTTTT [GTGCAC_site9398] | 8.87 ± 0.36 |
| GATATAATTATATTATGGTGTTTTTGATAGATATTT [GTGCAC_negctrl_site313] | 8.71 ± 0.39 |
| ATCAAACCATAAAAGAGTACAAAAGGATGATATTTT [XGTACX_site8883] | 8.97 ± 0.4 |
| TATTTTAAAGAGAAAACATGCATTATATAGAACATT [TGCATGCA_site328] | 8.49 ± 0.38 |
| ATAAAATATAGATGCACACACATATAGATTTCATAC [CACACA_site7636] | 9.29 ± 0.37 |
| TGTATATTTTTTATTACACACTTTTTACTTTTTAGA [CACACA_site3069] | 8.77 ± 0.55 |
| TTTTTTAATTGTGATACGTATATTATTTAATGATAA [GTGCAC_negctrl_site704] | 8.45 ± 0.3 |
| AGAGAGATGACAAAAAGATGAATAACGTTAAGGGAT [XGTACX_negctrl_site120] | 9.25 ± 0.49 |
| TATTTATTGTGATACTTATATTATTTTATGATTAAA [CACACA_negctrl_site901] | 8.48 ± 0.41 |
| ATGGAAATATATACATGTACATAAATATATATATAT [XGTACX_site8391] | 9.18 ± 0.37 |
| ATGTTTTGCATATATTATATATTTATTTATTTTTTT [CACACA_negctrl_site729] | 8.77 ± 0.51 |
| AGTGGACTTTTTTTTTTTTTTTTTTTTTTTTTATTA [CACACA_negctrl_site547] | 8.54 ± 0.57 |
| AGTAGTCTGGAGAAGAGTACATAGTATCTGGTAACC [XGTACX_site2043] | 8.91 ± 0.46 |
| GTATGGCGTATCATATGTACTAAAAAAAAATAAAAA [XGTACX_site5101] | 8.66 ± 0.55 |
| TATTTATCATCATATTGTACATTATATATATAAAAT [XGTACX_site6675] | 8.63 ± 0.47 |
| AATAAAAAAATGTCACGTACTTATTTTATTAAACCT [XGTACX_site3031] | 8.59 ± 0.33 |
| AAGTATGTCGACTGTTGTACTTTTATCATTTATTAT [XGTACX_site1129] | 8.93 ± 0.45 |
